Assay results as given in the supplement of paper PMC12217912.
Some of the results follow. Sequences were assembled here from the parent chain. Values near 0.05 are background.

B1: TEV protease; numbered along this chain (parent)
chain: MGESLFKGPRDYNPISSSICHLTNESDGHTTSLYGIGFGPFIITNKHLFRRNNGTLVVQSLHGVFKVKDTTTLQQHLVDGRDMIIIRMPKDFPPFPQKLKFREPQREERICLVTTNFQTKSMSSMVSDTSCTFPSGDGIFWKHWIQTKDGQCGSPLVSTRDGFIVGIHSASNFTNTNNYFTSVPKNFMELLTNQEAQQWVSGWRLNADSVLWGGHKVFMVKPEEPFQPVKEATQL

Variants of: B1
Test: raw area under fraction-flipped curve 0-4 h after induction (AUC4h, not background-subtracted), DNA-recorder readout of cleavage of the substrate (dimensionless); higher = more cleavage of the substrate by the protease variant
Details: temperature: 34 °C; time window: 0-4 h after rhamnose induction
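Also: Bxb1 expression induced with 0.2% (w/v) L-rhamnose at OD600 near 0.5, cultures sampled hourly, flipped fraction per protease–substrate barcode pair counted by paired-end Illumina sequencing.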

Variant: MGESLFKGPRDYNPISSSICHLTNESDGHTTSLYGIGFGPFIITNKHLFRRNNGTLVVQSLHGVFKVKDTTTLQQHLVDGRDMIIIRMPKDFPPFPQKLKFREPQREERICLVTTNFQTKPMSSMVSDTSCTFPSGDGIFWKHWIQTKDGQCGSPLVSTRDGFIVGIHSASNFTNTNNYFTSVPKNFMELLTNQEAQQWVSGWRLNADSVLWGGHKVFMVKPEEPFQPVKEATQL [S121P]
- area with substrate ENLYFCS: 0.0679
- area with substrate ENLYFDS: 0.0597
- area with substrate ENLYFES: 0.0445
- area with substrate ENLYFHS: 0.0691
- area with substrate ENLYFIS: 0.0631
- area with substrate ENLYFMS: 0.0676
- area with substrate ENLYFPS: 0.0584
- area with substrate ENLYFRS: 0.0568
- area with substrate ENLYFSS: 0.0635
- area with substrate ENLYFWS: 0.0606
- area with substrate ENLYFYS: 0.0658

Variant: MGESLFKGPRDYNPISSSICHLTNESDGHTTSLYGIGFGPFIITNKHLFRRNNGTLVVQSLHGVFKVKDTTTLQQHLVDGRDMIIIRMPKDFPPFPQKLKFREPQREERICLVTTNFQTKGMSSMVSDTSCTFPSGDGIFWKHWIQTKDGQCGSPLVSTRDGFIVGIHSASNFTNTNNYFTSVPKNFMELLTNQEAQQWVSGWRLNADSVLWGGHKVFMVKPEEPFQPVKEATQL [S121G]
- area with substrate ENLYFCS: 0.0489
- area with substrate ENLYFES: 0.0602
- area with substrate ENLYFFS: 0.0646
- area with substrate ENLYFGS: 0.0554
- area with substrate ENLYFHS: 0.0538
- area with substrate ENLYFIS: 0.0496
- area with substrate ENLYFKS: 0.0709
- area with substrate ENLYFLS: 0.0607
- area with substrate ENLYFMS: 0.0639
- area with substrate ENLYFNS: 0.0581
- area with substrate ENLYFPS: 0.0676
- area with substrate ENLYFTS: 0.0542
- area with substrate ENLYFYS: 0.0485

Variant: MGESLFKGPRDYNPISSSICHLTNESDGHTTSLYGIGFGPFIITNKHLFRRNNGTLVVQSLHGVFKVKDTTTLQQHLVDGRDMIIIRMPKDFPPFPQKLKFREPQREERICLVTTNFQTKSMSSMVSDTSCTFPVGDGIFWKHWIQTKDGQCGSPLVSTRDGFIVGIHSASNFTNTNNYFTSVPKNFMELLTNQEAQQWVSGWRLNADSVLWGGHKVFMVKPEEPFQPVKEATQL [S135V]
- area with substrate ENLYFCS: 0.0572
- area with substrate ENLYFDS: 0.0507
- area with substrate ENLYFES: 0.0467
- area with substrate ENLYFFS: 0.0628
- area with substrate ENLYFGS: 0.0516
- area with substrate ENLYFHS: 0.0522
- area with substrate ENLYFIS: 0.0662
- area with substrate ENLYFMS: 0.0619
- area with substrate ENLYFNS: 0.0508
- area with substrate ENLYFPS: 0.0592
- area with substrate ENLYFSS: 0.0576
- area with substrate ENLYFTS: 0.0523

Variant: MGESLFKGPRDYNPISSSICHLTNESDGHTTSLYGIGFGPFIITNKHLFRRNNGTLVVQSLHGVFKVKDTTTLQQHLVDGRDMIIIRMPKDFPPFPQKLKFREPQREERICLVTTNFQTKSMSSMVSDTSCTFPPGDGIFWKHWIQTKDGQCGSPLVSTRDGFIVGIHSASNFTNTNNYFTSVPKNFMELLTNQEAQQWVSGWRLNADSVLWGGHKVFMVKPEEPFQPVKEATQL [S135P]
- area with substrate ENLYFCS: 0.0746
- area with substrate ENLYFDS: 0.047
- area with substrate ENLYFES: 0.051
- area with substrate ENLYFFS: 0.0683
- area with substrate ENLYFGS: 0.0889
- area with substrate ENLYFHS: 0.0542
- area with substrate ENLYFIS: 0.0723
- area with substrate ENLYFKS: 0.0657
- area with substrate ENLYFMS: 0.0666
- area with substrate ENLYFNS: 0.0618
- area with substrate ENLYFPS: 0.0531
- area with substrate ENLYFRS: 0.0521
- area with substrate ENLYFTS: 0.0651
- area with substrate ENLYFVS: 0.0685
- area with substrate ENLYFWS: 0.05
- area with substrate ENLYFYS: 0.0627

Variant: MGESLFKGPRDYNPISSSICHLTNESDGHTTSLYGIGFGPFIITNKHLFRRNNGTLVVQSLHGVFKVKDTTTLQQHLVDGRDMIIIRMPKDFPPFPQKLKFREPQREERICLVTTNFQTKSMSSMVSDTSCTFPSGDGIFWKHWIQTKDGQCGSPCVSTRDGFIVGIHSASNFTNTNNYFTSVPKNFMELLTNQEAQQWVSGWRLNADSVLWGGHKVFMVKPEEPFQPVKEATQL [L156C]
- area with substrate ENLYFCS: 0.0499
- area with substrate ENLYFDS: 0.0692
- area with substrate ENLYFES: 0.0738
- area with substrate ENLYFFS: 0.067
- area with substrate ENLYFGS: 0.0499
- area with substrate ENLYFHS: 0.0579
- area with substrate ENLYFIS: 0.0561
- area with substrate ENLYFMS: 0.0732
- area with substrate ENLYFNS: 0.0542
- area with substrate ENLYFPS: 0.0552
- area with substrate ENLYFRS: 0.0624
- area with substrate ENLYFSS: 0.0563
- area with substrate ENLYFTS: 0.0535
- area with substrate ENLYFVS: 0.0591
- area with substrate ENLYFYS: 0.0636

Variant: MGESLFKGPRDYNPISSSICHLTNESDGHTTSLYGIGFGPFIITNKHLFRRNNGTLVVQSLHGVFKVKDTTTLQQHLVDGRDMIIIRMPKDFPPFPQKLKFREPQREERICLVTTNFQTKSMSSMVSDTSCTFPSGDGIFWKHWIQTKDGQCGSPSVSTRDGFIVGIHSASNFTNTNNYFTSVPKNFMELLTNQEAQQWVSGWRLNADSVLWGGHKVFMVKPEEPFQPVKEATQL [L156S]
- area with substrate ENLYFCS: 0.0468
- area with substrate ENLYFDS: 0.0499
- area with substrate ENLYFES: 0.0502
- area with substrate ENLYFHS: 0.0502
- area with substrate ENLYFIS: 0.0495
- area with substrate ENLYFKS: 0.061
- area with substrate ENLYFLS: 0.0529
- area with substrate ENLYFMS: 0.0499
- area with substrate ENLYFNS: 0.0631
- area with substrate ENLYFPS: 0.0459
- area with substrate ENLYFRS: 0.0433
- area with substrate ENLYFSS: 0.0524
- area with substrate ENLYFTS: 0.0087
- area with substrate ENLYFVS: 0.0638

Variant: MGESLFKGPRDYNPISSSICHLTNESDGHTTSLYGIGFGPFIITNKHLFRRNNGTLVVQSLHGVFKVKDTTTLQQHLVDGRDMIIIRMPKDFPPFPQKLKFREPQREERICLVTTNFQTKSMSSMVSDTSCTFPSGDGIFWKHWIQTKDQQCGSPLVSTRDGFIVGIHSASNFTNTNNYFTSVPKNFMELLTNQEAQQWVSGWRLNADSVLWGGHKVFMVKPEEPFQPVKEATQL [G150Q]
- area with substrate ENLYFCS: 0.0447
- area with substrate ENLYFDS: 0.0532
- area with substrate ENLYFHS: 0.0748
- area with substrate ENLYFKS: 0.0553
- area with substrate ENLYFLS: 0.0573
- area with substrate ENLYFMS: 0.0574
- area with substrate ENLYFPS: 0.0505
- area with substrate ENLYFRS: 0.065
- area with substrate ENLYFSS: 0.0598
- area with substrate ENLYFVS: 0.0669
- area with substrate ENLYFYS: 0.0593

Variant: MGESLFKGPRDYNPISSSICHLTNESDGHTTSLYGIGFGPFIITNKHLFRRNNGTLVVQSLHGVFKVKDTTTLQQHLVDGRDMIIIRMPKDFPPFPQKLKFREPQREERICLVTTNFQTKSMSSMVSDTSCTFPSGDGIFRKHWIQTKDGQCGSPLVSTRDGFIVGIHSASNFTNTNNYFTSVPKNFMELLTNQEAQQWVSGWRLNADSVLWGGHKVFMVKPEEPFQPVKEATQL [W141R]
- area with substrate ENLYFCS: 0.0518
- area with substrate ENLYFDS: 0.0594
- area with substrate ENLYFES: 0.0586
- area with substrate ENLYFFS: 0.0638
- area with substrate ENLYFGS: 0.0556
- area with substrate ENLYFHS: 0.0551
- area with substrate ENLYFIS: 0.0526
- area with substrate ENLYFMS: 0.0733
- area with substrate ENLYFNS: 0.0593
- area with substrate ENLYFPS: 0.0589
- area with substrate ENLYFRS: 0.0546
- area with substrate ENLYFSS: 0.0755
- area with substrate ENLYFTS: 0.0631
- area with substrate ENLYFYS: 0.0503

Variant: MGESLFKGPRDYNPISSSICHLTNESDGHTTSLYGIGFGPFIITNKHLFRRNNGTLVVQSLHGVFKVKDTTTLQQHLVDGRDMIIIRMPKDFPPFPQKLKFREPQREERICLVKTNFQTKSMSSMVSDTSCTFPSGDGIFWKHWIQTKDGQCGSPLVSTRDGFIVGIHSASNFTNTNNYFTSVPKNFMELLTNQEAQQWVSGWRLNADSVLWGGHKVFMVKPEEPFQPVKEATQL [T114K]
- area with substrate ENLYFCS: 0.0675
- area with substrate ENLYFDS: 0.0657
- area with substrate ENLYFES: 0.0729
- area with substrate ENLYFFS: 0.0594
- area with substrate ENLYFIS: 0.0282
- area with substrate ENLYFMS: 0.0736
- area with substrate ENLYFPS: 0.0757
- area with substrate ENLYFWS: 0.0409
- area with substrate ENLYFYS: 0.0536
